Measurements from PubChem BioAssay AID2147 (National Center for Advancing Translational Sciences (NCATS), 2009).
The campaign covered roughly 230,000 compounds. About 3,600 (1.6%) were called active. The inconclusive results got no clear call from the source; some entries with a clear call stand among them for comparison. Calls follow the shape of the dose curve; as a rule, active = well fitted inhibition curve with a large enough effect (not every such curve was filed as active); inconclusive = small, poorly fitted or top-dose-only effect, or another doubt; inactive = no such curve, though single readings can be large or run the other way. Potencies of inconclusive entries are doubtful fits and often do not repeat.

The compounds below were run against Lysine-specific demethylase 4E (Homo sapiens) (UniProt B2RXH2) (assay: qHTS Assay for Inhibitors of Human Jumonji Domain Containing 2E (JMJD2E)). Details: JMJD2E catalytic domain, FDH-coupled NADH fluorescence (FDH is formaldehyde dehydrogenase); series mostly up to 57.1 µM; activity change, negative = inhibition: at the top concentration.
Sequence of UniProt B2RXH2 (B2RXH2 whole entry, looked up, the tested form may be a part): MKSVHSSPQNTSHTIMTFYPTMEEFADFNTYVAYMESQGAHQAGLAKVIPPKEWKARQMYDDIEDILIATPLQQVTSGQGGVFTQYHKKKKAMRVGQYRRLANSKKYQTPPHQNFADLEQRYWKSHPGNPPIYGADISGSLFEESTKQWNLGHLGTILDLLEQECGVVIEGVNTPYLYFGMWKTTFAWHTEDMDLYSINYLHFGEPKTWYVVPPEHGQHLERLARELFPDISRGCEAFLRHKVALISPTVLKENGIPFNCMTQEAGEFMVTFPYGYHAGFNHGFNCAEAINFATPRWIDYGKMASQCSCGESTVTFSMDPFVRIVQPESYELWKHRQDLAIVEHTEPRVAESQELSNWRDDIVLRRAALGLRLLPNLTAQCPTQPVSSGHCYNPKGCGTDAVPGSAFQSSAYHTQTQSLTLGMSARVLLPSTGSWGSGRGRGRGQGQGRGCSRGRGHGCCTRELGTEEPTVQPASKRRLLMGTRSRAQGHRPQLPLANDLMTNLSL
Also: nearly all actives have a fitted effect of over 50% in size.
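For activity change, negative = inhibition in this document: 0% = wells with enzyme and -100% = buffer wells without enzyme.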
Potency is read from the fitted curve at half-maximal effect; tags tell the direction and shape of the fitted curve.

Row | Compound | Potency | activity change, negative = inhibition
1 | O=C(NCc1ccc(Cl)cc1)c1cc2ccccn2n1 | inconclusive: 39.8 µM [inhibitor, single point] | –
2 | O=c1/c(=C\c2cc([N+](=O)[O-])cc([N+](=O)[O-])c2O)sc2nc3ccccc3n12 | inconclusive: 39.8 µM [inhibitor, single point] | –
3 | Cc1oc2c(CN3CCOCC3)c(O)ccc2c(=O)c1-c1ccc(Br)cc1 | inconclusive: 25.1 µM [inhibitor, partial curve] | –
4 | COc1ccc(NC(=S)N2CCC(C(=O)N3CCCCCC3)CC2)cc1 | – | inactive: 5.25%
5 | CC1CCc2c(C(=O)NCC3CCCO3)csc2C1 (stereo unspecified) | – | inactive: -1.05%
6 | COc1ccc(/C=C\c2nc(=O)c3ccccc3o2)cc1 | – | inactive: -20.1%
7 | COc1cc(/C=C/C(=O)OCC(=O)Nc2cc(S(=O)(=O)N(C)C)ccc2Cl)ccc1O | inconclusive: 20 µM [inhibitor, partial curve] | –
8 | O=C(O)c1ccc(COc2ccc3ccccc3c2/C=C2/NC(=O)N(c3ccccc3)C2=O)cc1 | inconclusive: 28.2 µM [inhibitor, single point] | –
9 | Cc1cc(=O)nc2c3ccccc3n(CC(=O)Nc3ccccc3Br)n12 | inconclusive: 39.8 µM [inhibitor, single point] | –
10 | O=C(NC(=S)Nc1ccc(CN2CCOCC2)cc1)c1cccc([N+](=O)[O-])c1 | – | inactive: 1.79%
11 | COC(=O)C1CCN(Cc2cn(-c3ccccc3)nc2-c2ccc3c(c2)OCO3)CC1 | inconclusive: 31.6 µM [inhibitor, partial curve] | –
12 | CCOC(=O)c1cc(C#N)c(SCc2cccc3ccccc23)nc1C | inconclusive: 39.8 µM [inhibitor, single point] | –
13 | Cc1nc2cc(C(=O)N3CCc4ccccc43)ccc2n1-c1ccc(F)c(F)c1 | – | inactive: -24.8%
14 | CC(=O)Nc1ccc(C(=O)NNS(=O)(=O)c2ccc(C)cc2)cc1 | inconclusive: 39.8 µM [inhibitor, single point] | –
15 | CC1(C)Cc2c(c(=S)nc(-c3ccccc3)n2Cc2cccnc2)CO1 | – | inactive: -3.14%
16 | O=C(Nc1ccccc1)c1ccc2nc(-c3ccco3)c(-c3ccco3)nc2c1 | inconclusive: 39.8 µM [inhibitor, single point] | –
17 | Cc1c(N=C/C=C/c2ccccc2)cnn1C | inconclusive: 39.8 µM [inhibitor, single point] | –
18 | Nc1nc2n(n1)C(c1ccco1)CC(c1ccc(Cl)cc1Cl)N2 (stereo unspecified) | inconclusive: 39.8 µM [inhibitor, single point] | –
19 | Cc1ccc(OCc2nnc(NC(=O)c3ccco3)s2)cc1 | – | inactive: -1.72%
20 | Cc1ccc(CNC(=O)c2ccc3c(=O)c(O)c(-c4ccc(C)cc4)[nH]c3c2)cc1 | inconclusive: 39.8 µM [inhibitor, single point] | –
21 | O=C(O)CCCCCN1C(=O)/C(=C\c2cn(-c3ccccc3)nc2-c2cccs2)SC1=S | inconclusive: 39.8 µM [inhibitor, single point] | –
22 | CCOC(=O)C1=C(c2ccccc2)N=c2s/c(=C\c3ccco3)c(=O)n2C1c1cccs1 (stereo unspecified) | active: 12.6 µM | –
23 | Cc1c(C(=O)Nc2c(F)cccc2F)sc2ncnc(N3CCN(c4ccccc4)CC3)c12 | inconclusive: 39.8 µM [inhibitor, single point] | –
24 | C[C@@H]([C@H](O)c1ccc(O)cc1)N1CCC(Cc2ccccc2)CC1 | inactive | –

Row | Compound | Potency | activity change, negative = inhibition
25 | CN(C)S(=O)(=O)c1cccc(NC(=S)N/N=C/c2ccco2)c1 | – | inactive: -4.23%
26 | Cc1[nH]ccc(=O)c1OCc1ccccc1 | – | inactive: -0.0521%
27 | O=C(Cc1ccccc1)Nc1ccc(NC(=O)c2cccc(Cl)c2)cc1 | inconclusive: 39.8 µM [inhibitor, single point] | –
28 | COc1cccc(F)c1C(C[N+](=O)[O-])c1c(N)n(C)c(=O)n(C)c1=O (stereo unspecified) | – | inactive: 11.3%
29 | Cc1cc(C)c(NC(=O)C2CCN(c3cnccn3)CC2)c(C)c1 | inconclusive: 35.5 µM [inhibitor, single point] | –
30 | Cc1nc(-c2ccc(-n3nncc3-c3ccco3)cc2)cs1 | inconclusive: 31.6 µM [inhibitor, partial curve] | –
31 | Cc1cc(C)c(C)c(S(=O)(=O)Nc2ccccc2C(=O)NCCCN2CCOCC2)c1C | inconclusive: 28.2 µM [inhibitor, partial curve] | –
32 | COc1ccc(OC)c(-n2c(-c3ccc(O)cc3O)n[nH]c2=S)c1 | inconclusive: 35.5 µM [inhibitor, single point] | –
33 | CCOCCCNC(=O)/C=C1\Sc2ccccc2N(Cc2ccccc2F)C1=O | inconclusive: 39.8 µM [inhibitor, single point] | –
34 | CC(C)(C)OC(=O)N1CCC[C@H]1C(=O)N/N=C/c1cccc2cccnc12 | inconclusive: 31.6 µM [inhibitor, single point] | –
35 | CCC(CC)C(=O)NCCN1CCN(C(=O)C(CC)CC)CC1 | – | inactive: 1.43%
36 | O=C(O)CCC(=O)N1CCN(c2ccccn2)CC1 | inconclusive: 35.5 µM [inhibitor, single point] | –
37 | COc1cc2oc(-c3ccc(O)cc3)cc(=O)c2c(O)c1OC | inconclusive: 39.8 µM [inhibitor, single point] | –
38 | COc1cc(Nc2nc(-c3ccccc3)c3cc(C)ccc3n2)cc(OC)c1OC | – | inactive: -5.83%
39 | CC1CCc2nc(N)c(C#N)c(-c3ccncc3)c2C1 (stereo unspecified) | inconclusive: 39.8 µM [inhibitor, single point] | –
40 | Cc1nnc(C)n1N1C(=O)c2cccc3cccc(c23)C1=O | inconclusive: 7.08 µM [inhibitor, full curve] | –
41 | CC(C)CCn1cnc2c(oc3nc4c(cc32)CCCC4)c1=O | – | inactive: -13.4%
42 | Cc1ccnc(NS(=O)(=O)c2cccs2)c1 | inconclusive: 35.5 µM [inhibitor, single point] | –
43 | Cc1cc(C)c(C)c(S(=O)(=O)Nc2ccccc2C(=O)NCCCn2ccnc2)c1C | inconclusive: 28.2 µM [inhibitor, partial curve] | –
44 | COc1cc2c(cc1OC)C(c1ccc(N)cc1)=NNC(=O)C2 | – | inactive: 0.955%
45 | O=C(COC(=O)c1ccccc1Oc1ccccc1)NC1CC1 | inconclusive: 7.08 µM [inhibitor, single point] | –
46 | Cc1ccc(-n2c(C)c([N+](=O)[O-])c3ccc(O)c(CN(C)C)c32)cc1 | – | inactive: 7.31%
47 | O=C(Nc1nc(-c2cccs2)cs1)c1cccc(S(=O)(=O)N2CCCCCC2)c1 | inconclusive: 35.5 µM [inhibitor, single point] | –
48 | Cc1cc(/C=C/c2ccc3cc(N(C)C)ccc3[n+]2C)c(C)n1-c1ccccc1 | inconclusive: 22.4 µM [inhibitor, single point] | –

Row | Compound | Potency | activity change, negative = inhibition
49 | Cc1ccc2nc3ccc(N4CCCC4)nn3c(=O)c2c1 | inconclusive: 35.5 µM [inhibitor, single point] | –
50 | O=C(COc1nsnc1N1CCOCC1)N/N=C/c1ccccc1O | inconclusive: 25.1 µM [inhibitor, partial curve] | –
51 | Cc1ccsc1C1NC(=O)c2c(sc3c2CCCC3)N1 (stereo unspecified) | inconclusive: 39.8 µM [inhibitor, single point] | –
52 | CCC(C)NC(=O)c1cc2cc3ccc(OC)cc3nc2s1 (stereo unspecified) | inconclusive: 25.1 µM [inhibitor, partial curve] | –
53 | CCN(CC)c1ccc(-c2n[nH]c(=S)n2-c2ccccc2C)cc1 | inconclusive: 31.6 µM [inhibitor, partial curve] | –
54 | CCOc1ccccc1NC(=O)c1ccc(-n2cncn2)nc1 | inconclusive: 39.8 µM [inhibitor, single point] | –
55 | CC(OC(=O)c1ccc(Cl)c(S(=O)(=O)N2CCc3ccccc32)c1)C(=O)Nc1ncc(Cl)cc1Cl (stereo unspecified) | – | inactive: 3.94%
56 | COc1ccc(N2CSC3=C(C#N)C(c4ccc(OC)c(OC)c4)CC(=O)N3C2)c(OC)c1 (stereo unspecified) | – | inactive: -23.7%
57 | O=C(NCCCn1ccnc1)c1cc(-c2ccncc2)nc2ccccc12 | inconclusive: 3.16 µM [inhibitor, single point] | –
58 | COc1ccccc1C(=O)NCC(=O)OC(C)C(=O)NC(=O)NC1CCCCC1 (stereo unspecified) | – | inactive: 0.486%
59 | CC(C)n1cnc2c(NCc3ccc(S(N)(=O)=O)cc3)nc(NCc3ccc(S(N)(=O)=O)cc3)nc21 | inconclusive: 31.6 µM [inhibitor, single point] | –
60 | O=C(NCCN1CCOCC1)c1ccc2c(c1)N(Cc1c(F)cccc1Cl)C(=O)c1ccccc1S2 | – | inactive: -5.49%
61 | CC1(C)Cc2c(C#N)c(NC3CCCCC3)nc(-c3ccco3)c2CO1 | inconclusive: 15.8 µM [inhibitor, partial curve] | –
62 | CCn1c(/C=N/NC(=O)c2ccc(OC)cc2)nc2ccccc21 | inconclusive: 35.5 µM [inhibitor, single point] | –
63 | CCC(C)c1ccc(Nc2ncccc2C#N)cc1 (stereo unspecified) | – | inactive: -15.4%
64 | Cc1ccc(-n2ncc3c(=O)n(CC(=O)OCc4ccccc4)cnc32)cc1 | inconclusive: 39.8 µM [inhibitor, single point] | –
65 | COC(=O)/C=C/C(=O)Nc1cccnc1 | inconclusive: 25.1 µM [inhibitor, single point] | –
66 | Cc1ccc(-c2csc(N3CCC(NS(=O)(=O)c4ccc5c(c4)OCCO5)CC3)n2)cc1 | – | inactive: 1.95%
67 | CC(C)(C)c1csc(NNC(=O)c2ccc(Cl)cc2)n1 | inconclusive: 39.8 µM [inhibitor, single point] | –
68 | O=C(CSc1ccccc1C(=O)O)NCC1CCCCC1 | – | inactive: -28.1%
69 | O=C(O)C1OC(Oc2c(-c3ccc(O)c(O)c3)oc3cc(O)cc(O)c3c2=O)C(O)C(O)C1O (stereo unspecified) | active: 4.47 µM | –
70 | CC(=O)N1N=C(c2cccc([N+](=O)[O-])c2)OC1c1cccc(Br)c1 (stereo unspecified) | inconclusive: 15.8 µM [inhibitor, partial curve] | –
71 | O=C(COC(=O)c1c2c(nc3ccccc13)/C(=C\c1cccs1)CCC2)Nc1ccccc1 | inconclusive: 35.5 µM [inhibitor, single point] | –
